# Source: PubChem BioAssay
# This list was built around the results that the source calls inconclusive (neither active nor inactive); the mix of calls is not that of the screen. Calls of active or inactive are those of the source.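 Rule for the calls: active = thallium flux slope beyond 3 SD from same-plate DMSO control mean in most replicates, usually higher, sometimes lower; inconclusive = repeat tests gave conflicting results; inactive = no significant difference from controls in most replicates.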
# Target: Solute carrier family 12 member 5 (Homo sapiens) (UniProt Q9H2X9)
# Experiment: modulation of KCC2 thallium flux in HEK cells – cell-based, ouabain, retest, confirmation (AID 1717);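 note: slope of initial-normalized fluorescence between seconds 10 and 20 after thallium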
# Conditions: HEK293-KCC2, thallium flux FluoZin2 fluorescence, at 10 µM, bidirectional: low = inhibitor, high = activator
# Chain of UniProt Q9H2X9 (Q9H2X9 whole entry, looked up): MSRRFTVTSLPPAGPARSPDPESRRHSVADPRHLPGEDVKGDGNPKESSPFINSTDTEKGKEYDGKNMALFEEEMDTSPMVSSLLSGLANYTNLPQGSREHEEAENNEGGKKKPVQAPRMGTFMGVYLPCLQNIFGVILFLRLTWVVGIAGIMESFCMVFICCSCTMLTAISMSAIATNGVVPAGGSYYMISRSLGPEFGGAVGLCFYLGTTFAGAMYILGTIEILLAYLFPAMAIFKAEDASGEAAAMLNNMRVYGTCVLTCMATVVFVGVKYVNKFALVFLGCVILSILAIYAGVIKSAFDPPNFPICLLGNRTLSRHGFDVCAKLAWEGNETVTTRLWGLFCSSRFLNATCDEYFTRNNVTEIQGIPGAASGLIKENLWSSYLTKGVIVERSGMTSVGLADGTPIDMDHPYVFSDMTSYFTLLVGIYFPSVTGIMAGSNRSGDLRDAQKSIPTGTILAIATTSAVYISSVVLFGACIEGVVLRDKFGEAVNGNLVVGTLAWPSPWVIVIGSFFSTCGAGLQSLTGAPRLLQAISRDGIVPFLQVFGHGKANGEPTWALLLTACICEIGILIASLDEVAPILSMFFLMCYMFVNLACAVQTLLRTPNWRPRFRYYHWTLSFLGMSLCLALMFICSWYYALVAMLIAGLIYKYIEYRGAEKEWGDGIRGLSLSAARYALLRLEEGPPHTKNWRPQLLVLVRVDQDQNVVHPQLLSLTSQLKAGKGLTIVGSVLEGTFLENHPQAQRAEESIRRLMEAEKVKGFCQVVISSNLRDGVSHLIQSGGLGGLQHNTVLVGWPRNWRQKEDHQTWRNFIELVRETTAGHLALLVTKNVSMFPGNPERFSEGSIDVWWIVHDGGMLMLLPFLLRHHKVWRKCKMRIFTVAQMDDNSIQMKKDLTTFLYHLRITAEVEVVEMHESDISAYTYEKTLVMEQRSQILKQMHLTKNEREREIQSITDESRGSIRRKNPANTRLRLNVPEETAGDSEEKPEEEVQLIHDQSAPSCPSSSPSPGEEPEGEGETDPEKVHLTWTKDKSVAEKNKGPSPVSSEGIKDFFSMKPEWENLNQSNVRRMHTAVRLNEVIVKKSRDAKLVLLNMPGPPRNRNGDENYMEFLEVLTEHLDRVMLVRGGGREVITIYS
row,SMILES,"raw Tl+ flux slope (below DMSO = inhibition, above = activation)"
1,O=[N+]([O-])c1ccc(NC2CCN(Cc3ccccc3)CC2)c([N+](=O)[O-])c1,inconclusive: 0.0154
2,N#C/C(=N\Nc1ccccc1Cl)C(=O)c1ccccc1,active: 0.0155
3,CC1(C)Cc2c(C#N)c(N3CCN(C(=O)c4ccco4)CC3)nc(Cc3ccccc3)c2CO1,active: 0.0171
4,N#Cc1nc(-c2ccco2)oc1N1CCC(Cc2ccccc2)CC1,inconclusive: 0.0162
5,CCOC(=O)c1c2c([nH]c(=S)c1C#N)CCCC2,inconclusive: 0.0217
6,O=S(=O)(Nc1c(S(=O)(=O)c2ccccc2)c2nc3ccccc3nc2n1C1CCCCC1)c1ccccc1,inconclusive: 0.0159
7,CCc1ccc(OCc2n[nH]c(=S)n2Cc2ccccc2)cc1,inconclusive: 0.0299
8,Cn1c(-c2sc3cc(C(F)(F)F)cnc3c2-c2cccs2)n[nH]c1=S,inconclusive: 0.0244
9,CN1CCN(S(=O)(=O)c2cccc(C(=O)Nc3nc(-c4ccccc4)cs3)c2)CC1,inactive: 0.0141
10,CCOc1ccc(-c2ccc(SCC(=O)Nc3nnc(CC)s3)nn2)cc1,inconclusive: 0.022
11,CCC(OC(=O)C1=Cc2ccccc2OC1)C(=O)NCc1ccco1 (configuration not stated),inconclusive: 0.0178
12,COc1ccc(NC(=S)NC(=O)/C=C/c2ccco2)cc1,inconclusive: 0.0235
13,S=C(NCCc1ccccc1)NN=C1CCCCCC1,inconclusive: 0.0215
14,COc1cc(OC)cc(C(=O)NCCSCc2ccco2)c1,inactive: 0.0187
15,CCc1ccc(Nc2nnc(SCC(=O)NCCN3C(=O)CSC3=O)s2)cc1,inconclusive: 0.0183
16,Cn1nnnc1SCC1=C(C(=O)O)N2C(=O)C(NC(=O)C3CC3c3ccccc3)C2SC1 (configuration not stated),inactive: 0.0186
17,CSc1ncnc2sc(C)c(C)c12,inconclusive: 0.0206
18,CC(=O)c1cccc(NC(=S)NC(=O)c2ccc(C)cc2)c1,inconclusive: 0.0225
19,COc1ccc(-c2nc(Cn3c(SCc4ccc(F)cc4)nc4ccncc43)c(C)o2)cc1OC,inconclusive: 0.0172
20,Cc1noc(/C=C/N(C)C)c1S(=O)(=O)N(C)CC(=O)NC1CCCCC1,inconclusive: 0.0261
21,CCC(C)(C)n1nnnc1C(c1cccnc1)N1CCN(c2cccc(C(F)(F)F)c2)CC1 (configuration not stated),inactive: 0.0183
22,CCC(C(=O)Nc1ccsc1C(=O)OC)c1ccccc1 (configuration not stated),inconclusive: 0.0177
